Measured values from the supplement of paper PMC10126150.
Sequences with one replicate were seen in a single cluster, so their values are uncertain.

tested on: ATP; experiment: switch fluorescence ratio, 500 uM ATP over buffer (Cy3 cluster intensity, sum of 5 cycles each) (fold (ratio)); higher = stronger signal-on switching upon ATP binding; sequences stand for … in TCGTCGGCAGCGTCAGATGTGTATAAGAGACAGTTTTTTTTTTTTTTTTTTTTTTTTT…TC; details: aptamer strand: ATP DNA aptamer (quencher-CACCTGGGGGAGTATTGCGGAGGAAGG + anchor), 100 nM annealed; ATP concentration: 500 uM; one replicate
Procedure, shortened: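 Values give the fluorescence ratio for each switch-domain sequence, averaged from per-cluster ratios of summed target-cycle to summed buffer-cycle Cy3 intensity. The Cy3-labelled switching-strand clusters sat on a modified Illumina MiSeq flow-cell, were annealed to 100 nM quencher-labelled ATP aptamer, and were imaged in selection buffer, then after 15 min with 500 uM ATP at 22 °C. Five cycles ran with NaOH stripping and re-annealing between them, and clusters outside 100-1000 RFU were excluded.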
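Note: ATP exposure 15 min at 22 °C before imaging.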

Sequence | switch fluorescence ratio
CCTGAGAG | 1.01
CCTGAGAGAA | 0.993
CCTGAGGCAA | 3.36
CCTGAGTGGT | 1.03
CCTGATAACA | 0.974
CCTGCAGGTT | 3.71
CCTGCATATT | 1.3
CCTGCGCGT | 5.61
CCTGGAGGTA | 0.96
CCTGGCAGCT | 1.15
CCTGGCCCGT | 1.06
CCTGGCGT | 1.04
CCTGGGCTAG | 1.08
CCTGGGTATG | 1.01
CCTGGTCCTG | 0.986
CCTGGTTATC | 1.11
CCTGTAGTTC | 1.08
CCTGTATTCC | 1.1
CCTGTATTTA | 0.99
CCTGTGGCCA | 1.01
CCTGTTGGCT | 0.98
CCTTAAGGTG | 3.14
CCTTAGATCC | 1.01
CCTTAGCCCG | 1.28
CCTTATAAAA | 0.996
CCTTATCGCG | 1.03

Sequence | switch fluorescence ratio
CCTTATGTCA | 1.01
CCTTCAATTA | 1.17
CCTTCATCTA | 1.02
CCTTCCAGAA | 1.45
CCTTCGTTCG | 3.36
CCTTCTATGG | 1
CCTTGAGCAG | 3.31
CCTTGATCCC | 1.09
CCTTGCTAGG | 1.06
CCTTGCTGGG | 1.09
CCTTGGACCT | 1.24
CCTTGTATCA | 0.962
CCTTGTTCGA | 0.988
CCTTTAGACG | 0.999
CCTTTGAGCC | 1.22
CCTTTGAGGG | 1.03
CCTTTGGACT | 1.01
CCTTTGGATG | 1.02
CCTTTGTCGT | 1.05
CCTTTGTGGA | 1.04
CCTTTGTGGT | 1.04
CCTTTTAAG | 0.952
CCTTTTGACC | 1.13
CGAAAATATT | 0.996
CGAAACTGGG | 0.972
CGAAAGAAT | 1.03

Sequence | switch fluorescence ratio
CGAAAGACAT | 0.998
CGAAAGTGCG | 1.01
CGAAATAT | 4.27
CGAAATGATG | 0.983
CGAACAGACT | 1.02
CGAACCTCTC | 1.17
CGAACGAGCG | 0.992
CGAACGATTA | 1.08
CGAACGGGCT | 1.1
CGAACTATGC | 1.46
CGAACTTACC | 1.19
CGAAGAGACG | 1.01
CGAAGATGCT | 1.01
CGAAGCGGCC | 4.04
CGAAGGAGTC | 1.01
CGAAGTGATA | 1.55
CGAATAGGCA | 1.01
CGAATAGTTA | 0.995
CGAATATATA | 0.973
CGAATCACCC | 1.08
CGAATCCAAT | 1.04
CGAATCCGAG | 1.01
CGAATCTTT | 1.1
CGAATGCATT | 1.04
CGAATGGTCA | 0.999
CGAATTTTGT | 0.981

Sequence | switch fluorescence ratio
CGACAAGCAT | 1.84
CGACAATCTT | 1.03
CGACCCACTC | 1.49
CGACCCGTTA | 2.03
CGACCCGTTT | 1.02
CGACCGGGAT | 2.04
CGACCGGGGT | 1.04
CGACCTGCCG | 1.06
CGACGACTTA | 1.16
CGACGCGGGG | 1.48
CGACGGGTCT | 1.05
CGACGTAAGT | 1.2
CGACGTAATT | 4.35
CGACGTGTAT | 0.99
CGACGTGTGC | 2.65
CGACTAAGTT | 0.991
CGACTAGGCA | 1
CGACTGAACG | 1.01
CGACTGACGA | 1.35
CGACTGAGAC | 1.55
CGACTGCAGG | 1.05
CGACTTAACG | 0.973
CGACTTAACT | 1.07
CGACTTACGT | 1.32
CGACTTGGTT | 0.998
CGAGAAGTGC | 1.15

Sequence | switch fluorescence ratio
CGAGAGACTA | 1
CGAGATGACC | 0.998
CGAGATGAGT | 0.949
CGAGATGGAC | 1.02
CGAGATGGCT | 0.991
CGAGCAGACA | 1.46
CGAGCCGCAT | 1.08
CGAGCCGGA | 1
CGAGCGAGGG | 0.961
CGAGCGATAA | 2.79
CGAGCGGCCG | 1.05
CGAGCGTCTT | 1.06
CGAGCGTGAC | 1.44
CGAGCTGTCC | 1.1
CGAGGACAAT | 2.4
CGAGGACCTG | 1.04
CGAGGAGACC | 1.01
CGAGGAGGAC | 1.06
CGAGGCGAAC | 2.72
CGAGGCGCCG | 1.08
CGAGGGCCAG | 1.01
CGAGGGGGTC | 0.961
CGAGGGTAA | 1.05
CGAGGTACTC | 1.05
CGAGGTTC | 0.957
CGAGTAAGTT | 0.994

Sequence | switch fluorescence ratio
CGAGTAGGAC | 1.06
CGAGTATGA | 1.02
CGAGTATGTA | 1.01
CGAGTGAAAA | 1.3
CGAGTGCCCC | 1.02
CGAGTTAATC | 1.05
CGAGTTTAAA | 1.02
CGATACACAT | 1.04
CGATACTGCT | 0.991
CGATAGACTG | 1.02
CGATAGTCGC | 0.965
CGATAGTCT | 0.9
CGATAGTTTG | 0.992
CGATATACAC | 1.16
CGATATGTGT | 0.983
CGATCGTCAA | 3.51
CGATCGTGAT | 1.3
CGATCTCATT | 1.02
CGATCTGGGT | 0.971
CGATGAAATG | 1.02
CGATGATA | 1.02
CGATGCGCGG | 0.965
CGATGCGTCC | 1.08
CGATGCTCTT | 1.02
CGATGTCAGG | 1.07
CGATGTCGGA | 0.995

Sequence | switch fluorescence ratio
CGATTGATAG | 0.986
CGATTTCGAA | 0.919
CGATTTTCTG | 1.01
CGCAAAAACG | 1.13
CGCAAGAGAT | 1.1
CGCAAGGAAT | 1.08
CGCACATGTA | 1.13
CGCACCCCAT | 1.78
CGCACCCTA | 1.18
CGCACGCACC | 1.91
CGCACGCCTC | 1.68
CGCAGCCCGA | 1.22
CGCAGCGCCG | 0.988
CGCAGGTCAA | 1.19
CGCAGTGGGG | 1.07
CGCAGTTGGG | 1.06
CGCATAGCTC | 3.82
CGCATATGCG | 0.998
CGCATATTTC | 1.51
CGCATCCA | 1.14
CGCATCCAAA | 1.08
CGCATCGTCG | 1.02
CGCATCTGGT | 1.02
CGCATGCAAG | 1.03
CGCATTAGGC | 1.59
CGCATTAGTT | 1.29

Sequence | switch fluorescence ratio
CGCATTGAAC | 3.31
CGCATTGTCC | 2.64
CGCATTTGTA | 0.999
CGCATTTTTC | 1.55
CGCCAAACCT | 2.53
CGCCCCCGGG | 2.45
CGCCCTAAAC | 1.72
CGCCGACTGC | 1.1
CGCCGCGAAG | 1.91
CGCCGGGGTG | 1.06
CGCCGTCGGC | 1.05
CGCCGTGCTT | 1.03
CGCCTAAATG | 0.971
CGCCTAGGGT | 1.01
CGCCTAGTAA | 1.08
CGCCTCAAGT | 1.04
CGCCTCAATG | 1.53
CGCCTGAAGT | 0.996
CGCCTGAATC | 1.05
